{"source": "PubChem BioAssay AID504332", "about": "(National Center for Advancing Translational Sciences (NCATS), 2011)", "note": "Several values for one entry are separate records, joined by “and”; a condition that tells them apart may be missing. Equal entries are not always repeated. Hit rate of the full screen: of about 350,000 compounds, about 31,000 (8.9%) were called active. Inconclusive means that the source gave no clear call. Such entries were picked first, then a sample of the others. Calls come from the whole dose curve; as a rule, active = well fitted inhibition curve with a large enough effect; inconclusive = small, poorly fitted or top-dose-only effect; inactive = no such curve, though single readings can be large or run the other way. Potencies beside an inconclusive call are fits to weak or partial responses and may not hold up. % is set by controls: 0 for no effect and ±100 for the full control effect; potency is the fitted concentration of half-maximal effect; tags give direction and shape of the fitted curve."}
{"biological_target": "Histone-lysine N-methyltransferase EHMT2 (Homo sapiens) (UniProt Q96KQ7)", "sequence (Q96KQ7 whole entry, looked up)": "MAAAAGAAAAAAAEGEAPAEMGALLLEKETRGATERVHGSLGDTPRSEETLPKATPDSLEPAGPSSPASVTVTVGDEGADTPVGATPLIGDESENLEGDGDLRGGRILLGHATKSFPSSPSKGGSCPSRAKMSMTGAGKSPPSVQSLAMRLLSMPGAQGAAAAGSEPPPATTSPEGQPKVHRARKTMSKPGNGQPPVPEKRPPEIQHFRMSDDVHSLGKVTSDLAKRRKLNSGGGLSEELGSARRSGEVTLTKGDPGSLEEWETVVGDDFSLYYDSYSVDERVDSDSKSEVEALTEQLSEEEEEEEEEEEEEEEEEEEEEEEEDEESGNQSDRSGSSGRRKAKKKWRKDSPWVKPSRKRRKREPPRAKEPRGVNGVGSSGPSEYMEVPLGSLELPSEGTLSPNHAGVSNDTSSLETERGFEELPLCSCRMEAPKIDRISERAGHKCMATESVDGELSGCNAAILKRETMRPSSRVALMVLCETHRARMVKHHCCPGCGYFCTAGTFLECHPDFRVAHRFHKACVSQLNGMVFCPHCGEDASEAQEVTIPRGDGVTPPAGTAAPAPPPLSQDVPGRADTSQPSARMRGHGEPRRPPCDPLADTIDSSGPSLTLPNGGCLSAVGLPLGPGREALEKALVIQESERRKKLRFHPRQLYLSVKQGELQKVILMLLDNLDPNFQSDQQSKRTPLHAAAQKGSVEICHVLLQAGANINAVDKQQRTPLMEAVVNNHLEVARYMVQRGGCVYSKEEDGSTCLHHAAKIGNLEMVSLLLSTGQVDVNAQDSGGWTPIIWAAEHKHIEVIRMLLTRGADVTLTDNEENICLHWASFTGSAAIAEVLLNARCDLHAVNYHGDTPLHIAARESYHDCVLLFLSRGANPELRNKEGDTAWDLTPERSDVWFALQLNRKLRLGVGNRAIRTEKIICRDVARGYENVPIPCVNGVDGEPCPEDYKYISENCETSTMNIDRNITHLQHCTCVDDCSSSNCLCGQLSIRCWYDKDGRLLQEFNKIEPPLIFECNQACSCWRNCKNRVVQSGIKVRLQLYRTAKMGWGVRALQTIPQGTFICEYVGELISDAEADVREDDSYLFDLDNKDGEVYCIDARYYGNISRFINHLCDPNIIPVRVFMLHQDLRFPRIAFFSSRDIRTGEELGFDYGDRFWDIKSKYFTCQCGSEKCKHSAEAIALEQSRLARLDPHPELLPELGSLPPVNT", "test": "qHTS Assay for Inhibitors of Histone Lysine Methyltransferase G9a; note: nearly all actives have a fitted effect of over 75% in size", "conditions": "G9a H3K9 monomethylation, AlphaScreen, 2 h; activity, negative = inhibition: at 59 µM (top of the series) unless noted", "from_the_text": "Methylated lysines, on the N-terminal tails of histone proteins serve as epigenetic markers to recruit factors that can then modify local chromatin structure to lead to functional consequences. G9a and other members of the SUV39 family of the SET domain-containing superfamily of histone lysine methyltransferases (HMT) have been identified to specifically methylate Lys9 of histone H3 (H3K9). G9a catalyzes the mono- and di-methylation of H3K9 in mammalian euchromatic regions, where the resulting H3K9me2 is indicative of transcriptional repression. […] The inhibition of G9a will result in transcriptional activation and work synergistically with DNA methyltransferase and histone deacetylase inhibitors, to kill cancer cells. This qHTS assay for identification of G9a inhibitors is a chemiluminescence based AlphaScreen (PerkinElmer). Methylation of biotinylated-histone peptide is measured through specific antibody-based detection, in conjunction with streptavidin-coated donor and anti-IgG antibody-coated acceptor beads. The method is particularly well suited for detection of inhibitors acting by the desired histone peptide competitive mechanism and is applicable to testing other HMTs. Although AlphaScreen has significant advantages with its utility in a variety of epigenetic target assays, the primary screening data provided in this deposition should be used with caution due to the prevalence of screening artifacts. An AlphaScreen counterscreen is highly recommended to be run against any putative actives to eliminate non specific artifacts. Alternatively, one can use other AlphaScreen assays in PubChem to filter out promiscuous hits. Quinn et al. A chemiluminescence-based method for identification of histone lysine methyltransferase inhibitors. Mol Biosyst 6(5): 782-8. 2010. PMID: 20567762 [2] Baell,Holloway. New substructure filters for removal of pan assay interference compounds (PAINS) from screening libraries and for their exclusion in bioassays. J Med Chem. 53(7):2719-40. 2010. PMID: 20131845 NIH Molecular Libraries Probe Production Network [MLPCN] NIH Chemical Genomics Center [NCGC] Structural Genomics Consortium (SGC) NIH Grant: 5U54 MH084681-02\nTo each well of a 1,536w plate, 2ul of HMT enzyme (final 20nM) were added, using a nanoliter dispenser. The G9a- and GLP-inhibitor BIX-01294 (CID: 25150857) are used as an intraplate control, with a 16-point titration in duplicate. A Kalypsys pin-tool transferred 23nl of library compound solution in DMSO to each well. Following a 15 min incubation of enzyme with compounds at room temperature, 1ul mixture of b-H3K9 peptide substrate (final 500nM) and SAM cofactor (final 20uM) were added. Reactions were allowed to proceed at room temperature for 2 hours. Methylated b-H3K9 peptide product was detected with 0.5 ug/mL rabbit polyclonal anti-monomethyl histone H3K9 antibody (Abcam Inc., Cambridge, MA) and 20 ug/mL each streptavidin-coated donor and anti-rabbit IgG acceptor AlphaScreen beads. Antibody and beads were added in a 1ul dispense, for a final volume of 4ul, and plates were incubated, protected from the light, for 10 min at room temperature. Microplates were then read on an EnVision multilabel plate reader using the 1,536 plate HTS AlphaScreen aperture (excitation time 80 ms, measurement time 240 ms)."}
{"smiles": "COc1ccccc1CCC(=O)Nc1ccc2c(c1)CN(CCCn1cccn1)CC2", "Potency": "inconclusive: 79.4 µM [inhibitor, single point]"}
{"smiles": "COC(=O)c1ccc(C2/C(=C(\\O)c3ccc4c(c3)OCCO4)C(=O)C(=O)N2CCCN2CCOCC2)cc1", "note": "(configuration not stated)", "Potency": "inconclusive: 79.4 µM [inhibitor, single point]"}
{"smiles": "C[C@H](NC(=O)c1ccc(Cl)c(S(=O)(=O)N2CCOCC2)c1)c1nc2ccccc2[nH]1", "Potency": "inconclusive: 1.58 µM [inhibitor, partial curve, poor fit]"}
{"smiles": "O=C(O)C1CN(CCCP(=O)(O)O)CCN1", "note": "(configuration not stated)", "Potency": "inconclusive: 2.51 µM [inhibitor, partial curve] and inconclusive: 9.47 µM [inhibitor, partial curve]"}
{"smiles": "Cc1oc(-c2ccc(Cl)cc2)nc1CN1CCCC(C(=O)NCc2ccco2)C1", "note": "(configuration not stated)", "Potency": "inconclusive: 50.1 µM [inhibitor, partial curve, poor fit]"}
{"smiles": "COc1cccc(-c2csc3nnc(SCC(=O)c4ccc(NC(C)=O)cc4)n23)c1", "activity, negative = inhibition": "inconclusive: -51.9% [inhibitor]"}
{"smiles": "Cc1noc(C)c1C(=O)N1CCC2(CCCN(c3ccncc3)C2)CC1", "activity, negative = inhibition": "inactive: 2.69% [at 12.7 µM]"}
{"smiles": "CCc1ccc2occ(CC(=O)N(Cc3ccc(N(C)C)cc3)C3CCS(=O)(=O)C3)c2c1", "note": "(configuration not stated)", "Potency": "active: 12.6 µM"}
{"smiles": "O=C(NCCCN1CCOCC1)c1onc(CSc2nc3ccccc3[nH]2)c1C(=O)NCCCN1CCOCC1", "Potency": "active: 50.1 µM"}
{"smiles": "Cc1cccc(/C=C/C(=O)c2ccc([N+](=O)[O-])o2)c1", "activity, negative = inhibition": "inactive: -16.9% [at 2.33 µM]"}
{"smiles": "C=CCOc1cccc(C2C(C(=O)c3ccco3)=C(O)C(=O)N2Cc2cccnc2)c1", "note": "(configuration not stated)", "Potency": "active: 31.6 µM"}
{"smiles": "Cc1ccc(N2CC(C(=O)N3CCC(C(=O)Nc4nnc(C(C)C)s4)CC3)CC2=O)cc1", "note": "(configuration not stated)", "Potency": "active: 44.7 µM"}
{"smiles": "CCCCNC(=O)c1cc2c(=O)n3cccc(C)c3nc2n1C", "Potency": "inactive"}
{"smiles": "CC(=O)NC(NC(=S)Nc1ccc(N=Nc2ccccc2)cc1)C(Cl)(Cl)Cl", "note": "(configuration not stated)", "Potency": "inconclusive: 6.31 µM [inhibitor, single point]"}
{"smiles": "Cc1cccc(N2C(=O)CN(Cc3sccc3C)C2=S)c1", "Potency": "inconclusive: 39.8 µM [inhibitor, single point]"}
{"smiles": "CCCNC(=O)c1ccccc1NC(=O)c1ccccc1SC", "Potency": "active: 25.1 µM"}
{"smiles": "Cc1ccc(/C=C/S(=O)(=O)NCC(=O)OCC(=O)Nc2ccc(C(N)=O)cc2)cc1", "Potency": "active: 44.7 µM"}
{"smiles": "O=C(NCCc1ccccc1)C(=O)Nc1nccs1", "Potency": "inconclusive: 89.1 µM [inhibitor, single point]"}
{"smiles": "CN(C(=O)COC(=O)c1ccccc1NCc1ccco1)c1c(N)n(Cc2ccccc2)c(=O)[nH]c1=O", "Potency": "inconclusive: 79.4 µM [inhibitor, single point]"}
{"smiles": "Cc1ccc(C)c(NC(=O)CCN2CCOCC2)c1", "Potency": "inconclusive: 8.91 µM [inhibitor, single point]"}
{"smiles": "O=C(CSc1nc2c(c(=O)[nH]1)CCC2)Nc1cccc(Cl)c1", "Potency": "inconclusive: 79.4 µM [inhibitor, partial curve, poor fit]"}
{"smiles": "S=C1NC2(CCCCC2)Cc2ccccc21", "Potency": "inconclusive: 39.8 µM [inhibitor, single point]"}
{"smiles": "CCc1ccc(CNC(=O)c2cnc(N3CCCCC3)c3ccccc23)cc1", "Potency": "inactive"}
{"smiles": "CCCCn1c(N)c(N(CC)C(=O)CSc2nnc(-c3ccco3)n2CC)c(=O)[nH]c1=O", "Potency": "inconclusive: 63.1 µM [inhibitor, partial curve, poor fit]"}
{"smiles": "C=CCn1c(-c2ccccc2OC)n[nH]c1=S", "Potency": "active: 2 µM"}
{"smiles": "Cc1nc2c3cc(F)ccc3n(Cc3ccc(F)cc3)c2s1", "Potency": "inconclusive: 6.31 µM [inhibitor, single point]"}
{"smiles": "Cc1c(NC(=O)/C(=C/c2cccs2)c2cccs2)c(=O)n(-c2ccccc2)n1C", "Potency": "inconclusive: 25.1 µM [inhibitor, single point]"}
{"smiles": "Cc1ccc(S(=O)(=O)Cc2cc(-c3ccc(Cl)cc3)no2)cc1", "Potency": "inconclusive: 89.1 µM [inhibitor, single point]"}
{"smiles": "Cc1cc(NS(=O)(=O)c2ccc(NC(=O)/C=C/c3c(F)cccc3Cl)cc2)nc(C)n1", "Potency": "inconclusive: 31.6 µM [inhibitor, full curve]"}
{"smiles": "OCCCN=c1cc(-c2ccccc2)oc2ccc(Cl)cc12", "Potency": "inconclusive: 31.6 µM [inhibitor, single point]"}
{"smiles": "CCCN(C(=O)COC(=O)c1[nH]c(C)c(C(=O)OC)c1C)c1c(N)n(Cc2ccccc2)c(=O)[nH]c1=O", "Potency": "inconclusive: 50.1 µM [inhibitor, partial curve]"}
{"smiles": "CC(=O)N1CCC[C@@]2(CCN(c3ncccn3)C2)C1", "activity, negative = inhibition": "inactive: 0.312% [at 12.7 µM]"}
{"smiles": "Cc1ccccc1CNC(=O)C1CCCN(c2nnc(C)c3c(C)n(-c4ccccc4)nc23)C1", "note": "(configuration not stated)", "Potency": "active: 56.2 µM"}
{"smiles": "COc1cc2ncnc(NCc3cccs3)c2cc1OC", "Potency": "inconclusive: 31.6 µM [inhibitor, partial curve]"}
{"smiles": "CCOC(=O)c1ccc(S(=O)(=O)N2CCN(C(=O)c3cc4ccccc4o3)CC2)cc1", "Potency": "inconclusive: 79.4 µM [inhibitor, single point]"}
{"smiles": "CCOC(=O)CCC(NC(=O)c1cncc(O)c1)C(=O)OCC", "note": "(configuration not stated)", "Potency": "inconclusive: 14.1 µM [inhibitor, partial curve, poor fit]"}
{"smiles": "Cc1cc(C)n2nc(-c3ccsc3-n3c(C)ccc3C)cc2n1", "Potency": "active: 50.1 µM"}
{"smiles": "CN1C(C(=O)Nc2ccccn2)=C(O)c2sc(Cl)cc2S1(=O)=O", "Potency": "inconclusive: 3.16 µM [inhibitor, partial curve, poor fit]"}
{"smiles": "CC1CCc2nn(CC(=O)Nc3ccc(F)cc3F)cc2C1", "note": "(configuration not stated)", "Potency": "inactive"}
{"smiles": "CC(=O)Nc1ccc(Nc2c3ccccc3nc3ccccc23)cc1", "Potency": "inconclusive: 39.8 µM [inhibitor, single point]"}
{"smiles": "Cc1csc2nc(-c3ccc(NS(=O)(=O)c4cccc(F)c4)cc3)cn12", "Potency": "inconclusive: 28.2 µM [inhibitor, partial curve, poor fit]"}
{"smiles": "O=C(CCCSc1nc2ccccc2s1)Nc1nccs1", "Potency": "inactive"}
{"smiles": "C[C@@H]1C[C@H]2[C@H]3C[C@@H](F)C4=CC(=O)C=C[C@]4(C)[C@@]3(Cl)[C@@H](O)C[C@@]2(C)[C@@H]1C(=O)COC(=O)C(C)(C)C", "activity, negative = inhibition": "inactive: 1.04% [at 12.7 µM]"}
{"smiles": "Cc1ccc(S(=O)(=O)NC(=O)COc2ccc([N+](=O)[O-])cc2)cc1", "Potency": "inconclusive: 89.1 µM [inhibitor, single point]"}
{"smiles": "O=C(Nc1ccccc1)C1=C[C@@H](c2ccc(Br)cc2)C[C@@H](OCCCCO)O1", "activity, negative = inhibition": "inconclusive: -63.2% [inhibitor]"}
{"smiles": "CC(C)c1ccccc1-n1c(-c2cccnc2)n[nH]c1=S", "activity, negative = inhibition": "inactive: -35.7% [at 12.7 µM]"}
{"smiles": "CCCc1cc2c(=O)c(-c3cscn3)c(C(=O)OCC)oc2cc1O", "Potency": "inconclusive: 44.7 µM [inhibitor, partial curve, poor fit]"}
{"smiles": "O=C(Nc1ccccc1)c1ccc(CSc2ccccn2)cc1", "Potency": "inconclusive: 39.8 µM [inhibitor, single point]"}
{"smiles": "CCc1cccc(C)c1NC(=O)CCCN1C(=O)CN(C)C1=O", "Potency": "inconclusive: 14.1 µM [inhibitor, single point]"}
{"smiles": "CCOC(=O)C1CCN(C(=O)CSc2n[nH]c(=O)[nH]c2=O)CC1", "Potency": "inconclusive: 50.1 µM [inhibitor, partial curve, poor fit]"}
{"smiles": "Cc1cc(NC(=S)Nc2cccnc2)ccc1Br", "Potency": "active: 39.8 µM"}
{"smiles": "CCN1CCCC1CNS(=O)(=O)c1ccc(Cl)c(C(F)(F)F)c1", "note": "(configuration not stated)", "Potency": "inconclusive: 50.1 µM [inhibitor, partial curve, poor fit]"}
{"smiles": "Cc1ccc(S(=O)(=O)c2c(Nc3ccc(C)c(C)c3)sc(C(=O)c3ccc4c(c3)OCO4)c2N)cc1", "Potency": "inactive"}
{"smiles": "CC(C)C1Cc2c(C#N)c(N)n(C)c(=S)c2CO1", "note": "(configuration not stated)", "Potency": "active: 50.1 µM"}
{"smiles": "CCCOC1CCCN(C(=O)c2ccc(OC3CCN(C(=O)CCOC)CC3)cc2)C1", "note": "(configuration not stated)", "Potency": "inactive"}
{"smiles": "Cc1ccccc1-c1ccc(Nc2ccc(C(=O)N3CCOCC3)cc2)nn1", "Potency": "inconclusive: 70.8 µM [inhibitor, partial curve, poor fit]"}
{"smiles": "Cc1cccc(Nc2ccc(S(=O)(=O)N3CCOCC3)cc2[N+](=O)[O-])c1", "Potency": "inconclusive: 14.1 µM [inhibitor, single point]"}
{"smiles": "Cc1ccc(NS(=O)(=O)c2ccccc2F)cc1S(=O)(=O)N1CCCCC1", "activity, negative = inhibition": "inactive: 22.1% [at 2.33 µM]"}
{"smiles": "CCCOc1ccc(C2=NC(c3ccncc3)=Nc3ccc(C)cc3N2)cc1", "Potency": "inconclusive: 10 µM [inhibitor, partial curve, poor fit]"}
{"smiles": "Cc1nc2c(C(=O)N3CCOCC3)cnn2c(C)c1Cc1ccc(Cl)cc1", "activity, negative = inhibition": "inactive: 2.79% [at 12.7 µM]"}
{"smiles": "COc1cc(CNCCSc2nnnn2C)ccc1OCc1ccccc1C", "Potency": "inactive"}
{"smiles": "CCCCC(=O)NC(=S)NNC(=O)CC#N", "Potency": "inconclusive: 1.58 µM [inhibitor, full curve, poor fit]"}
{"smiles": "Cc1nc2nc(SCC(=O)NCCCN3CCCCCC3)nn2c(C)c1Cc1ccccc1", "Potency": "inconclusive: 89.1 µM [inhibitor, single point]"}
{"smiles": "COc1cc(/C(C)=N/NC(=O)C(O)(c2ccccc2)c2ccccc2)ccc1O", "Potency": "inactive"}
{"smiles": "COc1ccc(CC(=O)Nc2ccc(OC)nc2)cc1", "Potency": "inactive"}
{"smiles": "CC1CCCCN1C(=O)CCS(=O)(=O)Cc1ccccc1", "note": "(configuration not stated)", "Potency": "inconclusive: 89.1 µM [inhibitor, single point]"}
{"smiles": "CC(C)c1nnc(NC(=O)c2cnccn2)s1", "Potency": "inconclusive: 6.31 µM [inhibitor, single point]"}
